Measurements published in the supplement of paper PMC9446081.
Among all 39,000 compounds or so, about 220 (0.56%) showed activity. The list shows a part of the results.

Each molecule was assayed on Escherichia coli K-12 BW25113 (assay: relative growth (OD600 normalised to plate interquartile mean) (fraction); higher = less growth inhibition, active = 0.2 or less). Conditions: 50 µM; LB; incubation time: overnight (16-24 h).
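Also: static incubation at 37 °C against the wild-type strain, values averaged over two biological replicates.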

Structure (SMILES) | relative growth
COCC(=O)Nc1ccc2c(c1)OC[C@@H](C)N(C(=O)c1ccccc1F)C[C@@H](C)[C@H](OC)CN(C)C2=O | inactive: 0.982
C[C@H]1CN([C@@H](C)CO)C(=O)c2cccc(NC(=O)c3cnccn3)c2O[C@@H]1CN(C)C(=O)Nc1ccc(F)cc1 | inactive: 0.988
CC1(C)[C@H]2CC[C@@]1(C)c1nn(-c3ccccc3)c(C(F)(F)F)c12 | inactive: 1.01
Cc1noc(C)c1S(=O)(=O)N(C)C[C@H]1Oc2ccc(NS(=O)(=O)c3cccs3)cc2CC(=O)N([C@H](C)CO)C[C@@H]1C | inactive: 1.05
C[C@H](CO)N1C[C@H](C)[C@H](CN(C)C(=O)Cc2ccncc2)Oc2cc(C#CC3CCCC3)ccc2S1(=O)=O | inactive: 0.99
CO[C@@H]1CN(C)C(=O)c2cc(NC(C)=O)ccc2OC[C@H](C)N(S(=O)(=O)c2cn(C)cn2)C[C@H]1C | inactive: 1.01
CC(C)(C)[S@@](=O)N1Cc2cc(C(=O)NCCc3ccncc3)nc(-c3cccc(-c4ccccc4)c3)c2[C@H]1CCO | inactive: 1.02
COCC(=O)N1C[C@@H](C)[C@H](OC)CN(C)C(=O)c2ccc(NC(=O)c3ccc(OC)cc3)cc2OC[C@@H]1C | inactive: 0.997
C[C@@H]1CN([C@@H](C)CO)S(=O)(=O)c2ccc(Br)cc2O[C@H]1CN(C)C(=O)c1cccc(F)c1 | inactive: 1.02
Cc1noc(C)c1NC(=O)Nc1ccc2c(c1)C(=O)N([C@@H](C)CO)C[C@@H](C)[C@@H](CN(C)Cc1ccc(C(=O)Nc3ccccc3N)cc1)O2 | inactive: 0.975
COc1ccc(S(=O)(=O)N(C)C[C@H]2OCCCC[C@H](C)Oc3ccc(NC(=O)C4CCCCC4)cc3C(=O)N([C@H](C)CO)C[C@@H]2C)cc1 | inactive: 1.02
O[C@@H]1[C@@H](O)[C@H](Nc2ccccc2)OC[C@H]1O | inactive: 1.03
O=C(/C=C/c1ccc(O)c(O)c1)O[C@@H]1C[C@@](O)(C(=O)O)C[C@@H](O)[C@@H]1O | inactive: 1.05
COc1ccc(S(=O)(=O)N(C)C[C@@H]2OCCCC[C@H](C)Oc3ccc(NC(=O)Nc4ccc(F)cc4)cc3C(=O)N([C@@H](C)CO)C[C@@H]2C)cc1 | inactive: 1.04
C[C@@H]1CCCCO[C@@H](CN(C)Cc2ccc(Cl)c(Cl)c2)[C@@H](C)CN([C@H](C)CO)C(=O)c2cc(NC(=O)c3ccccc3)ccc2O1 | inactive: 1.01
C[C@H]1CN([C@@H](C)CO)C(=O)Cc2cc(NC(=O)Cn3cnnn3)ccc2O[C@@H]1CN(C)S(=O)(=O)c1ccc(Cl)cc1 | inactive: 0.988
CN1CCN(C(=O)C[C@H]2CC[C@H]3[C@@H](COc4ccc(NC(=O)C5CCOCC5)cc4C(=O)N3C)O2)CC1 | inactive: 0.995
C[C@H]1CN([C@@H](C)CO)C(=O)c2cc(NC(=O)Nc3ccc4c(c3)OCO4)ccc2O[C@H]1CN(C)Cc1ccc(C(=O)Nc2ccccc2N)cc1 | inactive: 0.991
CC(=O)O[C@H]1C[C@@]2(C)[C@@H](C[C@@H](O)[C@@H]3[C@@]4(C)CC[C@@H](O)[C@@H](C)[C@@H]4CC[C@@]32C)/C1=C(/CCC=C(C)C)C(=O)O | inactive: 0.877

Structure (SMILES) | relative growth
C[C@@H]1CN([C@H](C)CO)C(=O)c2cccc(NS(=O)(=O)c3cn(C)cn3)c2O[C@@H]1CN(C)C(=O)NC1CCCCC1 | inactive: 0.987
C[C@@H]1CCCCO[C@@H](CN(C)Cc2ccc(C(=O)O)cc2)[C@@H](C)CN([C@@H](C)CO)C(=O)c2cc(NC(=O)Cc3ccccc3)ccc2O1 | inactive: 1
COc1ccc(CN(C)C[C@H]2Oc3ccc(NC(=O)Cn4cnnn4)cc3CC(=O)N([C@@H](C)CO)C[C@@H]2C)cc1 | inactive: 0.992
C[C@@H]1CN([C@@H](C)CO)S(=O)(=O)c2ccc(-c3ccc(C#N)cc3)cc2O[C@H]1CN(C)C(=O)CN(C)C | inactive: 0.982
Cc1cc(=O)n(CCO)c(=O)[nH]1 | inactive: 1.04
C[C@@H]1CN([C@@H](C)CO)C(=O)c2cccc(NC(=O)Nc3cccc4ccccc34)c2O[C@H]1CN(C)S(=O)(=O)c1ccc(OC(F)(F)F)cc1 | inactive: 0.791
COc1ccc(S(=O)(=O)N(C)C[C@@H]2Oc3c(NS(=O)(=O)c4ccc(F)cc4)cccc3C(=O)N([C@@H](C)CO)C[C@H]2C)cc1 | inactive: 0.992
CCCNC(=O)C[C@@H]1CC[C@H]2[C@@H](COC[C@@H](O)CN2S(=O)(=O)c2ccc(Oc3ccccc3)cc2)O1 | inactive: 0.983
C[C@@H]1CN([C@@H](C)CO)C(=O)c2cccc(NC(=O)c3ccncc3)c2O[C@@H]1CN(C)Cc1ccc(Oc2ccccc2)cc1 | inactive: 1
CNC[C@H]1OCCCC[C@@H](C)Oc2ccc(NS(=O)(=O)c3cn(C)cn3)cc2C(=O)N([C@@H](C)CO)C[C@@H]1C | inactive: 0.983
Cc1ccc(S(=O)(=O)Nc2ccc3c(c2)CC(=O)N([C@H](C)CO)C[C@H](C)[C@@H](CN(C)S(=O)(=O)c2c(C)noc2C)O3)cc1 | inactive: 0.995
CN1C(=O)c2cc(NS(=O)(=O)c3cccc(F)c3)ccc2OC[C@@H]2O[C@@H](CC(=O)NCCN3CCCCC3)CC[C@@H]21 | inactive: 0.986
C[C@@H]1CCCCO[C@H](CN(C)S(=O)(=O)c2ccc(F)cc2)[C@@H](C)CN([C@H](C)CO)C(=O)c2cc(NC(=O)NC3CCCCC3)ccc2O1 | inactive: 1.02
C[C@@H]1CCCCO[C@H](CN(C)S(=O)(=O)c2ccc(F)cc2)[C@H](C)CN([C@H](C)CO)C(=O)c2cc(NC(=O)C3CCCCC3)ccc2O1 | inactive: 1.03
NC(=O)[C@H]1CCCNC1 | inactive: 0.916
C[C@@H]1CN([C@@H](C)CO)C(=O)c2cccc(NC(=O)CCCCCC(=O)Nc3ccccc3N)c2O[C@@H]1CN(C)CC1CCCCC1 | inactive: 0.978
C[C@@H]1CN([C@@H](C)CO)C(=O)c2cccc(NS(=O)(=O)c3cn(C)cn3)c2O[C@@H]1CN(C)C(=O)Nc1ccccc1 | inactive: 0.994
C[C@@H]1CN([C@H](C)CO)C(=O)Cc2cc(NS(C)(=O)=O)ccc2O[C@H]1CN(C)Cc1ccc(C(=O)O)cc1 | inactive: 0.978
